Data from PubChem BioAssay AID686979 (National Center for Advancing Translational Sciences (NCATS), 2013).
About 50,000 (12%) of roughly 420,000 compounds were called active. Inconclusive means that the source gave no clear call. Such entries were picked first, then a sample of the others. Calls follow the shape of the dose curve; as a rule, active = well fitted inhibition curve with a large enough effect; inconclusive = small, poorly fitted or top-dose-only effect; inactive = flat fitted curve, though single readings scatter. Potencies of inconclusive entries are left out as doubtful fits.

test: qHTS for Inhibitors of human tyrosyl-DNA phosphodiesterase 1 (TDP1): qHTS in cells in presence of CPT; conditions: chicken DT40 Tdp1-/-;hTDP1 cells + 20 nM CPT, ATP luminescence, 48 h; activity change, negative = growth inhibition: at 46.2 µM (top of the series) unless noted; also: nearly all actives have a fitted effect of over 55% in size
How it was run: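 Cell growth measured by CellTiter-Glo luminescence after a minimum 48 h, 37 C compound exposure with 20 nM CPT in Tdp1-knockout DT40 cells stably expressing hTDP1, seeded 400/well; qHTS titration format.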
% is scaled to controls: 0 for no effect and ±100 for the full control effect; potency is read from the fitted curve at half-maximal effect; tags tell the direction and shape of the fitted curve.

With `O=C(Nc1ccc(N=Nc2ccccc2)cc1)c1ccccc1Cl` as the compound, how does the Potency read?
Its Potency is inconclusive [inhibitor, single point].

Which Potency does the source give for `C=CCOc1nc2c(c(=O)n(Cc3ccc(Cl)cc3)c(=O)n2C)n1C` here?
Its Potency is inconclusive [inhibitor, single point].

Which Potency does the source give for `CCOC(=O)c1[nH]c2ccc(OC)cc2c1NC(=O)CN1CCC2(CC1)OCCO2` here?
Its Potency is “inactive”.

For `Fc1ccc(Nc2nc(N3CCOCC3)nc(N3CCOCC3)n2)cc1Cl`, which Potency is on record?
Its Potency is inconclusive [inhibitor, single point].

Which Potency does the source give for `C=C(C)Cn1c(C)cc(C)c(S(=O)(=O)c2ccc(C)cc2)c1=O` here?
The Potency was inconclusive [inhibitor, single point].

For `CCN(CC)Cc1c(O)ccc2occ(C(=O)c3ccccc3)c12`, which Potency is on record?
The Potency was inconclusive [inhibitor, single point].

With `CCCc1ccc(NS(=O)(=O)c2c(C)oc(C)c2C(=O)OC)cc1` as the compound, how does the Potency read?
Its Potency is inconclusive [inhibitor, single point].

For `CCn1nc(C)cc1C(=O)N1CCCC(C(=O)c2ccccc2SC)C1` (stereo unspecified), which Potency is on record?
The Potency was active: 16.4 µM.

Which Potency does the source give for `CCOC(=O)C1=C(C)N(C)C(=S)NC1c1ccc(Cl)cc1Cl` (stereo unspecified) here?
Its Potency is inconclusive [inhibitor, partial curve, poor fit].

With `Cn1c(=O)c2cc(C(=O)NC3CCCCCC3)sc2c2ccccc21` as the compound, how does the Potency read?
The Potency was inconclusive [inhibitor, single point].

With `OCCCCNCc1ccc(OCc2ccccc2Cl)cc1` as the compound, how does the Potency read?
Its Potency is inconclusive [inhibitor, single point].

With `CC(=O)c1cc2c(cc1NC(=O)Cn1nc(-c3ccc(C)cc3)ccc1=O)OCO2` as the compound, how does the Potency read?
Its Potency is inconclusive [inhibitor, single point].

Which Potency does the source give for `O=C(CNS(=O)(=O)c1cccc2nsnc12)NCCc1ccccc1` here?
The Potency was “inactive”.

Which Potency does the source give for `Cc1ccc2oc(-c3ccccc3)c(O)c(=O)c2c1` here?
The Potency was inconclusive [inhibitor, single point].

For `O=C(COC(=O)c1ccc(O)cc1O)Nc1ccc2c(c1)OCCO2`, which Potency is on record?
The Potency was active: 9.2 µM.

Which Potency does the source give for `COC(=O)c1cc(Nc2cc(C)c3ccc(O)cc3n2)cc(C(=O)OC)c1` here?
Its Potency is inconclusive [inhibitor, single point].

For `CC12CC(NC(=O)N1CCc1ccccc1)c1cc(Cl)ccc1O2` (stereo unspecified), which Potency is on record?
The Potency was inconclusive [inhibitor, single point].

For `CN(Cc1ccccc1)C(=O)COC(=O)c1ccccc1NS(=O)(=O)c1cccc(N)c1`, which Potency is on record?
Its Potency is inconclusive [inhibitor, single point].

With `COc1ccc(NC(=O)CN2CCCC(C)C2)c([N+](=O)[O-])c1` (stereo unspecified) as the compound, how does the Potency read?
Its Potency is inconclusive [inhibitor, partial curve].

With `COc1ccccc1N1CCN(C(=O)C2CCN(S(=O)(=O)c3ccc4c(c3)CC(C)N4C(=O)C3CC3)CC2)CC1` (stereo unspecified) as the compound, how does the Potency read?
Its Potency is inconclusive [inhibitor, single point].

With `Clc1ccc(/C=N/N2CCN(Cc3ccccc3Cl)CC2)cc1` as the compound, how does the Potency read?
Its Potency is “inactive”.

Which activity change, negative = growth inhibition does the source give for `O=C(Cn1ncc2c3ccccc3n(Cc3ccccc3)c2c1=O)NC1CCCCCC1` here?
Its activity change, negative = growth inhibition is inconclusive: -8.55% [inhibitor].

For `CC(=O)Nc1ccc(S(=O)(=O)NCc2nc(-c3ccc(C)cc3)no2)cc1`, which Potency is on record?
Its Potency is “inactive”.

With `NS(=O)(=O)c1ccc(Nc2nc(-c3ccc4ccccc4c3)cs2)cc1` as the compound, how does the Potency read?
The Potency was inconclusive [inhibitor, single point].

For `Cc1ccc(C(C(=O)NCC2CCCO2)N(C(=O)c2snc(C(N)=O)c2N)c2ccccc2F)o1` (stereo unspecified), which Potency is on record?
The Potency was inconclusive [inhibitor, partial curve].

Which Potency does the source give for `CCOc1ccc(CN2CCc3nc(N4CCN(c5ccccn5)CC4)ncc3C2)cc1OC` here?
Its Potency is active: 23.1 µM.

Which activity change, negative = growth inhibition does the source give for `CCOC(=O)C1CCN(C(=O)Nc2ccc(Cl)cc2Cl)CC1` here?
The activity change, negative = growth inhibition was inconclusive: -34.7% [inhibitor].

For `CC(C)(C)c1ccc(NC(=O)NC2CCCc3ccccc32)cc1` (stereo unspecified), which Potency is on record?
Its Potency is inconclusive [inhibitor, single point].

For `C=CCn1c(SCC(=O)N2CCCC2)nc2c([nH]c3ccccc32)c1=O`, which Potency is on record?
Its Potency is “inactive”.

For `O=C(CCC1N=C2c3ccccc3N=C(SCc3ccccc3Cl)N2C1=O)NCc1ccco1` (stereo unspecified), which Potency is on record?
The Potency was inconclusive [inhibitor, single point].

Which Potency does the source give for `Cc1ccc(C(=O)c2cn(Cc3ccccc3C)c3nc(C)ccc3c2=O)cc1` here?
Its Potency is active: 20.6 µM.

With `Cc1cccc(NC(=O)c2cc3c(s2)-c2c(C)cccc2OC3)n1` as the compound, how does the Potency read?
The Potency was inconclusive [inhibitor, single point].

With `C[C@@H](c1ccccc1)N1C[C@@H](COCc2ccccc2)Oc2cc(N3CCC[C@@H]3CO)ccc2S1(=O)=O` as the compound, how does the Potency read?
The Potency was inconclusive [inhibitor, single point].

For `Cc1ccc(Nc2nnc(SCC(=O)Nc3cccc(S(=O)(=O)N4CCCCC4)c3)s2)cc1`, which Potency is on record?
Its Potency is inconclusive [inhibitor, single point].

Which Potency does the source give for `Cc1ccc(Cn2ccc(=O)c(OCc3ccccc3)c2C)cc1` here?
The Potency was inconclusive [inhibitor, partial curve].

Which Potency does the source give for `COc1ccc(-c2cn3c(n2)sc2cc(C(=O)NCc4cccc(F)c4)ccc23)cc1` here?
The Potency was inconclusive [inhibitor, single point].

For `CCN(CC(=O)Nc1c(F)cccc1F)C(=O)c1ccc(S(=O)(=O)N(CC)c2ccccc2)cc1`, which Potency is on record?
Its Potency is inconclusive [inhibitor, single point].

For `Cc1oc2c(cc(NS(=O)(=O)c3ccc(Cl)cc3)c3ccccc32)c1C(=O)OCc1ccccc1`, which Potency is on record?
Its Potency is inconclusive [inhibitor, single point].

Which Potency does the source give for `CCCc1noc(-c2ccc(NCc3ccc(C)cc3)c([N+](=O)[O-])c2)n1` here?
Its Potency is inconclusive [inhibitor, partial curve].

With `CCN(CC)c1ccc(NC(=O)CN2CCN(c3ccc(F)cc3)CC2)cc1` as the compound, how does the Potency read?
Its Potency is inconclusive [inhibitor, single point].

With `Cc1ccc(NS(=O)(=O)c2cccc(C(=O)NCc3ccccn3)c2)cc1` as the compound, how does the Potency read?
Its Potency is inconclusive [inhibitor, single point].
